# Source: the supplement of paper PMC3334620
# The full ranking holds about 33,000 sequences; the median of “E-score (-0.5 to 0.5)” is about -0.012, and the highest 2% start at about 0.27. Some of the results follow.
# Molecular target: T1, Vhr1 (UniProt P40522)
# T1 sequence: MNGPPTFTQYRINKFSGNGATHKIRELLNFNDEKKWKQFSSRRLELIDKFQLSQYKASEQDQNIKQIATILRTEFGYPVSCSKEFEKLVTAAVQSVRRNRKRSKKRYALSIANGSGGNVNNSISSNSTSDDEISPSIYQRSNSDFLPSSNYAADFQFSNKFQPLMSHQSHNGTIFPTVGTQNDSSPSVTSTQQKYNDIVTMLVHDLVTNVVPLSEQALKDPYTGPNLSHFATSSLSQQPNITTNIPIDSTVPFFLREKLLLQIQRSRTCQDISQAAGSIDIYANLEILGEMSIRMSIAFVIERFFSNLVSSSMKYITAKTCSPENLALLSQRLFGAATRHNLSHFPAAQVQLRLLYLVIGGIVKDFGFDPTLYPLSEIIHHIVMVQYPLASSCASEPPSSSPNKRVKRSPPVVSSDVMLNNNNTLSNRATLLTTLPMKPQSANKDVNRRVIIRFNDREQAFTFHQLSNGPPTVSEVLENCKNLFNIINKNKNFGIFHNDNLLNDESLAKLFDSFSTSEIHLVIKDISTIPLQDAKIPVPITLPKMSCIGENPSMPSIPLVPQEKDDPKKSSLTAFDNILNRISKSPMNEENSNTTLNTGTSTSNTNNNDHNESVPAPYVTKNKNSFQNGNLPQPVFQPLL
# Test: PBM E-score (8-mer binding enrichment) (E-score (-0.5 to 0.5)); higher = stronger / more preferred TF binding; most listed sequences are background and not binding sites
# Details: protein concentration: 200 nM; construct: GST-full length
# Method in brief: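 GST-tagged yeast TFs (full-length or DNA-binding domain) were made by PURExpress in vitro transcription/translation and applied at about 100-200 nM to universal all-10-mer Agilent arrays. The arrays were made double-stranded by primer extension, on fresh or once-stripped slides. Bound protein was detected with fluorescent anti-GST, and scans were normalised with masliner. Each ungapped eight-base word, pooled with its reverse complement, received an E-score (modified Wilcoxon-Mann-Whitney statistic) from the Universal PBM Analysis Suite.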
row,Sequence,PBM E-score
1,CACAGCAG,0.267
2,CATGAACG,0.0516
3,AGTCTCAC,0.0608
4,GGGGGCGA,-0.201
5,CTGCGTAC,-0.0202
6,CCCAAGCC,-0.0244
7,AATCGATT,-0.0451
8,CAGCCACA,0.147
9,CTGGCACC,-0.127
10,CTAACCTC,-0.00233
11,AGGCCCAT,-0.199
12,GAGGCCCC,-0.341
13,AAAGGAAC,-0.15
14,GCGCCCAA,0.00047
15,TCTATAGA,-0.00193
16,CCGAGAGC,-0.0932
17,GCATGGCA,0.0379
18,CACCGCAC,0.105
19,GCGAAACC,-0.0227
20,ACGGGTAA,0.00924
21,CAGCTTGG,0.0962
22,ACCGCGTC,-0.0961

row,Sequence,PBM E-score
1,TATCGTAA,0.11
2,AAAAGCAG,-0.101
3,GGTGATAC,0.0146
4,ATTAGCAA,0.124
5,AAAGGTTA,-0.357
6,ACCGCCGC,0.21
7,ATGAATGA,0.255
8,GGAAAGCC,-0.0802
9,CCCATGAG,0.227
10,GTCCCTTA,-0.145
11,ATTGGCCA,-0.036
12,TGGTGCAA,-0.259
13,GGAGTATA,0.18
14,GACCTCCA,-0.0067
15,TCCGGCGA,-0.00689
16,CCGGACAA,0.08
17,AACGCGGC,-0.181
18,CGGTCTTC,-0.0512
19,GTGATCGA,0.166
20,GTACGCCA,-0.108
21,CTGACTAC,0.361
22,ACTAAACG,-0.0382

row,Sequence,PBM E-score
1,GAGAGCTA,-0.158
2,AACGACGA,0.083
3,GAAGATGA,-0.15
4,ACCGTACA,-0.157
5,AAACTATC,-0.0315
6,ACATCATC,0.166
7,CTGGGTGC,0.123
8,GGCCAATA,-0.134
9,ACCGGCGA,0.203
10,CTCTATAA,-0.207
11,ATAAGCAC,0.00956
12,CATATAGG,0.0494
13,TACTGACA,0.147
14,ACTGTGAT,-0.0183
15,TAGCGGCA,-0.165
16,GGGAGGAA,0.0727
17,AAACCAGC,-0.0724
18,GAAGTGGA,0.0071
19,CGATTCCG,0.0986
20,CTCGTAGA,-0.319
21,AGCTTACA,-0.0429
22,TTATAGAA,-0.144

row,Sequence,PBM E-score
1,CGCCACAG,0.135
2,AGGCCCAA,-0.129
3,CCGAAATA,0.0993
4,CCTGTTTC,0.0392
5,ATTGAAAG,-0.163
6,AGCAGTCA,0.256
7,TGTAGGAA,-0.181
8,ATGTCCTA,-0.147
9,ACATCCCT,0.111
10,AAATACCG,-0.0804
11,CACGTCCC,0.0143
12,AGGTTGAA,-0.127
13,AAGAGCTG,0.0538
14,TATCGGGA,-0.105
15,AGTTAGTG,-0.00305
16,AAATAGAT,0.0278
17,TGCCAACA,0.0278
18,AAACCGTG,0.0439
19,ACTTTTGG,-0.146
20,TATCCATA,0.161
